From article PMC5537589, “A peptide-based viral inactivator inhibits Zika virus infection in pregnant mice and fetuses” (Nature Communications, 2017)

Settings: 1 or 2 weeks after the third injection

MAVLGDTAWDFGSVGGALNSLGKGIHQIFGAAF [Z2]
Z2-specific antibodies in sera (ELISA): below detection

Where no end group is shown, it is not given here.
